# The supplement of paper PMC11417369
# ± gives the standard deviation of the averaged measurements. The list shows a part of the results.
# Tested on: PfAP2-EXP AP2 domain (GST-tagged)
# Test: gcPBM binding intensity (ln(normalized median fluorescence intensity)); higher = stronger DNA binding
# In short: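 GST-fused DNA-binding domains of P. falciparum, expressed in E. coli, were applied at about 25 μg on average for 1 h to an Agilent 4 × 180k array of primer-extended double-stranded 36-bp intergenic genomic probes and negative controls. Binding intensity is the highest Masliner-normalised natural-log median intensity across replicate spots of either probe orientation, measured with Alexa488 anti-GST antibody and a 488 nm scan.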
row,Sequence,gcPBM binding intensity (ln)
1,CTTATTTAATGTATCACACACGAGAATAAAAAATAA [CACACA_site3020],8.58 ± 0.42
2,ATGGTTTTCAGAAAAACATGCATACAATAATAAAAA [TGCATGCA_site815],9.08 ± 0.41
3,AATAAAATGCAATACATTTTGTTATATAATGTTGTT [CACACA_negctrl_site1525],8.26 ± 0.42
4,CACAATGTAGTGTATAAATACAATAAAAGGTTGTAT [CACACA_negctrl_site700],8.54 ± 0.38
5,ATTTTTTTTATTATTACACACATATAATAAAAAAAT [CACACA_site1802],8.39 ± 0.67
6,ATTTTTTTTTTCTTTTTTTTTTGTTTTTCTCCTTTT [CACACA_negctrl_site1182],8.37 ± 0.59
7,TAAAGTGTAAAATTCACACACATATATATATATATA [CACACA_site4883],10.1 ± 0.36
8,ATATTGTAAGTAAACACACACACATATATCTGTATA [CACACA_site4541],8.48 ± 0.51
9,GTATAATTTATTGAACGTACACATATATATATGTAT [XGTACX_site1395],8.61 ± 0.26
10,TCTTGTCTACCTTGTATTTAATATTTACATATATAA [TGCATGCA_negctrl_site320],8.95 ± 0.4
11,TATTTCTTATTACATACACACATATACATAGATGAC [CACACA_site5729],8.69 ± 0.45
12,TTCTTGTATATATTTTGTACATATATACCATTTTAG [XGTACX_site2409],8.88 ± 0.38
13,TATATGTTTTTATGTACACACTTTTAACCTAAGAAA [CACACA_site4769],8.8 ± 0.092
14,TATTTGTAAAAATTGTGTACTTAGAAAATTCCAAAA [XGTACX_site6007],8.1 ± 0.099
15,ATCATTCCACTTTTCACACATATCTCTATTTCTATC [CACACA_site4723],9.14 ± 0.52
16,TGGAGGTCAGTTCACAGTACCCAGTAACTCTACGGA [XGTACX_site2549],8.46 ± 0.47
17,AAAAAAAATAAAATAATAAAAATTATGAATATATAT [CACACA_negctrl_site280],8.37 ± 0.29
18,AAATGTATAGGAATAATAATAAAAAAAAAAAAAAAT [CACACA_negctrl_site1793],8.39 ± 0.46
19,ATAGGTAATAATAATACACACGGTGAAATATAGATG [CACACA_site9336],8.88 ± 0.47
20,CAGTTTACTAATATTGCACACGAATATGAAAAAGAG [CACACA_site8941],9.04 ± 0.15
21,TTTTTCACACTTCAAAAGTGTCAACCTTCTATTCTC [TGCATGCA_negctrl_site489],8.65 ± 0.42
22,TTTTTTTTTCAAGAGGTGCGTGTATTTTAACAAAAA,8.59
23,AAAAAAAATTATGAAGTGCATTAGTGAATTTGATTG,8.82 ± 0.18

row,Sequence,gcPBM binding intensity (ln)
1,TTATCATTTGCCATTGTGCACTTATATGCTCACATT,9.23 ± 0.29
2,TTGTCTACAAAAATGTGCTTCTAATCATACGACTTG [CACACA_negctrl_site46],8.24 ± 0.38
3,TACATATATTATTGCACACATATAAAATACCCCCAA [CACACA_site3895],9.55 ± 0.52
4,GTAAAATTTACATAGAGTACTTATATTTTTTTCTGC [XGTACX_site3414],8.35 ± 0.42
5,CACAAATATACAAATACACACAAATATACAAATACA [CACACA_site2385],8.7 ± 0.41
6,ACATATTAAATATGAGTGCAATATATATATATATAA,8.8 ± 0.057
7,TATTATATCTTTTCAAGTACACATAACATACTTATT [XGTACX_site1081],8.56 ± 0.38
8,TATAATTATATAAATTGTACATAAAAAGTTTTTACT [XGTACX_site3621],8.4 ± 0.28
9,CAATATATTATATGGGTGCAAACCACATATAAATAA,8.59 ± 0.099
10,TTAGGTATATATAAACGTACTCACAATATCATATAA [XGTACX_site8743],8.61 ± 0.42
11,AAATGTAATAATAAATGTACAAACATATATATGTAT [XGTACX_site8718],8.78 ± 0.57
12,TATATATACTTTTATGTACACACCTATAATATGGGT [CACACA_site1759],8.6 ± 0.33
13,ATAAATAAATAAAAAAGTACATTTCCACTTTTAACA [XGTACX_site81],8.21 ± 0.3
14,TGCACCCACCAACACACACACAACTAAAAAATAATG [CACACA_site2566],8.69 ± 0.43
15,AAGTTTAAAATCTTTGCACACATATAAATAAATATA [CACACA_site2554],8.65 ± 0.56
16,TTAAATGTAATATAATGTACGGATATTTACCATAAA [XGTACX_site1472],8.43 ± 0.37
17,TTGTAATAAATAAAAGTGCATATATGGTTCCACTAT [GTGCAC_site9944],8.37 ± 0.057
18,AAGTATGTATCACAAAGTACTTAAGCATATATTTAA [XGTACX_site4121],8.63 ± 0.42
19,TAAATATATTGGAGAGGTACACTTTTGGCATTGAAA [XGTACX_site8447],8.63 ± 0.42
20,TACAAATATGGACACACACACATATATATATATATA [CACACA_site4488],10 ± 0.53
21,TTATTTTTTTATTCATGTACACAAGAACATTTCATT [XGTACX_site5744],8.61 ± 0.28
22,GTATAATAGAAACACACACACACACCCAAAAAAAAA [CACACA_site2010],8.62 ± 0.52
23,GTATATATAATGTGCCGTACATTTATATATTCAATA [XGTACX_site1051],8.48 ± 0.25

row,Sequence,gcPBM binding intensity (ln)
1,ATTCTACGCACGCGCACACACAACAAAAAAAAAAAA [CACACA_site3538],8.4 ± 0.36
2,GTGATGGTACAATATACACACTTAAAAAAAAAAAAT [CACACA_site5360],8.47 ± 0.6
3,TATATACATATATATTGTACTTATTTTTATAATGTC [XGTACX_site3453],8.46 ± 0.3
4,CATGTGTGATAATGATGTACTATATTAAGCTAGTCC [XGTACX_site2690],8.33 ± 0.3
5,TTAAGGCATCAACATAGTACAATTTTTCTATAATAA [XGTACX_site1114],8.14 ± 0.35
6,ATTTAATACAAATACACACACAAATAAATACAGATA [CACACA_site5956],8.86 ± 0.38
7,TTTATAATTCTTACAACACACAATGTACTTTTATAT [CACACA_site8340],8.63 ± 0.37
8,TTTATTTCCTTTTTGTGTACATATATATGTAATTCA [XGTACX_site1718],8.91 ± 0.44
9,TATAAATAAATAGATACACACATATTTATAAATACA [CACACA_site6219],8.47 ± 0.48
10,ATAAAAGATATGTATATGTATATGTATATATATATA [TGCATGCA_negctrl_site214],9.8 ± 0.33
11,TTACGCTGCTATATAGTGCACATAATATATGACCTG,8.92 ± 0.057
12,GCTTAAGGTAAATATAAAATATAGTGTATACTTTAG [XGTACX_negctrl_site585],8.25 ± 0.4
13,TTTTATTTATTATTATGTACACACTATATTAAAACA [XGTACX_site1265],8.57 ± 0.27
14,TGAATAATCAATAGTACACACATATAAATATAAATA [CACACA_site7345],8.65 ± 0.28
15,ACTTAGGAAATAAAACGTACATTAAATATATACATA [XGTACX_site2990],8.47 ± 0.31
16,GTATGTATGTATGTATGTACTTATTAATCAGTAAAA [XGTACX_site3844],9.245 ± 0.092
17,TTTTTGTTAACAATGGGTACAAAAAAAAGGAAAATA [XGTACX_site7466],8.88 ± 0.47
18,CCCAAAAAATATCATAGTACTCAACATGACTACTAT [XGTACX_site7838],8.87 ± 0.83
19,AATTTTGTATAGGTATCACACATGAAATATATTATT [CACACA_site5526],8.46 ± 0.47
20,AAATAAAATAATAAAACATGCAAAAATAATGATTTA [TGCATGCA_site415],9.03 ± 0.17
21,ATAAAGATTAACAAAGTGCATTTATATATATAATCT [GTGCAC_site9407],8.61 ± 0.35
22,GGAACTTAAAAAAAATGTACTTATAAAAAAGGAAAT [XGTACX_site8186],8.69 ± 0.49
23,AAGAAAAGCATAGATGCACACATATATATATATATA [CACACA_site8675],10.2 ± 0.33

row,Sequence,gcPBM binding intensity (ln)
1,AACATGCAAACATGCACACAGAAAAAAAAAATATAT [CACACA_site1565],8.89 ± 0.51
2,TTACACATACATATGTGGGAAAATATTGCTACATAT [CACACA_negctrl_site463],8.57 ± 0.49
3,TATATATATATATATACACACATATATATATTTTTC [CACACA_site3983],10.2 ± 0.26
4,AACAATGGATTATTCACACATAAAAAAATTCACATT [CACACA_site5437],8.4 ± 0.43
5,AATACCTATGGAATTAATAATATGTGTACAGACACA [TGCATGCA_negctrl_site547],8.53 ± 0.15
6,CATTAAACCGTGGGAGCACACACACCCACCCACCCA [CACACA_site8000],8.95 ± 0.36
7,AATTTAAAGAATTGTAGTACAATGAAATATATATAA [XGTACX_site7970],8.67 ± 0.45
8,ATCATTATATTATGGTGTACCCATATATAATTATCA [XGTACX_site551],8.44 ± 0.26
9,AAAAAAATATATATATGTACATAACTTTGTTGTGAT [XGTACX_site5243],8.64 ± 0.42
10,TTTGAACATTTTGCAAGTACAAAAAAATAATATATC [XGTACX_site8079],8.37 ± 0.11
11,TGTTAAATTATTTATCAGATTATTATTTGTAAATAA [CACACA_negctrl_site1535],7.92 ± 0.48
12,ACACATATATATATATATATATATATATATATATAT [CACACA_negctrl_site1766],9.84 ± 0.54
13,CAATTCTTAAGTTCTTGTACGAAAAACGACAATTTA [XGTACX_site3890],8.34 ± 0.57
14,AAGAAAAATAATTAGGGTGAAAATATATAGAGTAAA [TGCATGCA_negctrl_site590],8.62 ± 0.47
15,GGTAATAATATGCATAGTACATAATATATATATATA [XGTACX_site6793],9.94 ± 0.2
16,TATTATATAAAATATTTTATTATATCATCTTCTCTA [XGTACX_negctrl_site319],8.29 ± 0.4
17,ATAATATAAATAATTATACACACTTAATATATATAT [CACACA_site2782],9.27 ± 0.071
18,GTATGTATGTATGTATGTACGTATTTATTTATTTAA [XGTACX_site726],9.26 ± 0.099
19,AAAAATGGTGTTAACACACACATATAAATAAATATA [CACACA_site6412],8.44 ± 0.35
20,AACATAAGTAATATTTGTACATATATAATAATATAT [XGTACX_site5123],8.31 ± 0.35
